The test concerns the target NUP98 (human (endogenous in primary keratinocytes)) (UniProt P52948). Kind of test: co-IP; nuclear extract of undifferentiated keratinocytes (50 mM Tris pH 8, 0.05% NP-40, 10% glycerol, 2 mM MgCl2, 250 mM NaCl); NUP98 or RAE1 antibody or mouse IgG control on protein G beads, overnight at 4 °C; also with or without RNase A (50 ug/mL, 20 min, 30 °C); blots for NUP98, RAE1, TPR and with mAb414.

The chains behind the UniProt entries cited, without tags or fusion partners. Residues count along the entry.
UniProt P52948, residues 1-880: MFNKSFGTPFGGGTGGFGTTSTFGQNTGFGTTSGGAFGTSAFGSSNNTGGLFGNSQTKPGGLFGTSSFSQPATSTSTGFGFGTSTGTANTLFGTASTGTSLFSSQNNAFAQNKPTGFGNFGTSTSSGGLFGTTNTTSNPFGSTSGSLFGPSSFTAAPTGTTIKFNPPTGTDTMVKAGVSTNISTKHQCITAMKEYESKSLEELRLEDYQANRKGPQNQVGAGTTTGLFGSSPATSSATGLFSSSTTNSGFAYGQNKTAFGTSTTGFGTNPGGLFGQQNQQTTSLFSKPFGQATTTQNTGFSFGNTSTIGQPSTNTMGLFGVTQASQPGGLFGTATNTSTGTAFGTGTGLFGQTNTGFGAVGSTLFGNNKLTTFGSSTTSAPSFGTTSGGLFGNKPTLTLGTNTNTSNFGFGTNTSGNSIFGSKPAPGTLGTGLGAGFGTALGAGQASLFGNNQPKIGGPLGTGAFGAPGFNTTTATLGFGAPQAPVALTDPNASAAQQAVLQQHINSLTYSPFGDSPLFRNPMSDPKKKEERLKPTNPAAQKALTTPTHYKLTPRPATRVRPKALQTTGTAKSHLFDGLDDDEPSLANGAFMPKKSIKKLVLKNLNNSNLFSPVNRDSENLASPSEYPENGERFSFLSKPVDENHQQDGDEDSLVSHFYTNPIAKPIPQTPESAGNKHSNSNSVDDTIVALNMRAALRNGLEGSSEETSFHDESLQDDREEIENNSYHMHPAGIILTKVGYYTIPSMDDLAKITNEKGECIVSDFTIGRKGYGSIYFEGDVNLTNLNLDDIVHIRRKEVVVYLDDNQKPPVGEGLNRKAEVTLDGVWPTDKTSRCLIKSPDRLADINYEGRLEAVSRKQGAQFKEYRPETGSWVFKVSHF

Results are given in words; binding and its absence hold for the method and conditions named. In cells and extracts the contact can be indirect. Some entries that bind do so weakly or less than the wild type.

B1: RAE1 (protein, UniProt P78406 1-368)
chain: MSLFGTTSGFGTSGTSMFGSATTDNHNPMKDIEVTSSPDDSIGCLSFSPPTLPGNFLIAGSWANDVRCWEVQDSGQTIPKAQQMHTGPVLDVCWSDDGSKVFTASCDKTAKMWDLSSNQAIQIAQHDAPVKTIHWIKAPNYSCVMTGSWDKTLKFWDTRSSNPMMVLQLPERCYCADVIYPMAVVATAERGLIVYQLENQPSEFRRIESPLKHQHRCVAIFKDKQNKPTGFALGSIEGRVAIHYINPPNPAKDNFTFKCHRSNGTNTSAPQDIYAVNGIAFHPVHGTLATVGSDGRFSFWDKDARTKLKTSEQLDQPISACCFNHNGNIFAYASSYDWSKGHEFYNPQKKNYIFLRNAAEELKPRNKK
Consider B1, for which the binding result is “binds”.

The values are drawn from article PMC10290086.
